Laboratory results published in patent publication US20230203098A1, “HUMAN TRANSFERRIN RECEPTOR BINDING PEPTIDE” (priority 2020, published 2023).
At least one structure is not confirmed: it was looked up by name or label, or the drawing left a doubt. Where a SMILES comes first, the peptide text is derived from it. Bridges are numbered along the chain shown (N, C = ends). [ ]: non-standard residue; d: D form. The star is where a group is joined. X7 = O=C(O)c1cc(N2C(=O)CC(*)C2=O)ccc1-c1c2ccc(=O)cc-2oc2cc(O)ccc12; PEG12 = NCCOCCOCCOCCOCCOCCOCCOCCOCCOCCOCCOCCOCCC(=O)O; NMeW = CN[C@@H](Cc1c[nH]c2ccccc12)C(=O)O; NMeY = CN[C@@H](Cc1ccc(O)cc1)C(=O)O; NMeF = CN[C@@H](Cc1ccccc1)C(=O)O; Orn = NCCC[C@H](N)C(=O)O; Dap = NC[C@H](N)C(=O)O

molecular target: transferrin receptor (hTfR) (Homo sapiens, UniProt P02786); experiment: Intermolecular interaction evaluation test between transferrin receptor (hTfR) and peptide by surface plasmon resonance (SPR); format: binding; settings: SPR; linker and payload (FITC, VivoTag) conjugates; read-out: KD
Sequence (P02786 whole entry): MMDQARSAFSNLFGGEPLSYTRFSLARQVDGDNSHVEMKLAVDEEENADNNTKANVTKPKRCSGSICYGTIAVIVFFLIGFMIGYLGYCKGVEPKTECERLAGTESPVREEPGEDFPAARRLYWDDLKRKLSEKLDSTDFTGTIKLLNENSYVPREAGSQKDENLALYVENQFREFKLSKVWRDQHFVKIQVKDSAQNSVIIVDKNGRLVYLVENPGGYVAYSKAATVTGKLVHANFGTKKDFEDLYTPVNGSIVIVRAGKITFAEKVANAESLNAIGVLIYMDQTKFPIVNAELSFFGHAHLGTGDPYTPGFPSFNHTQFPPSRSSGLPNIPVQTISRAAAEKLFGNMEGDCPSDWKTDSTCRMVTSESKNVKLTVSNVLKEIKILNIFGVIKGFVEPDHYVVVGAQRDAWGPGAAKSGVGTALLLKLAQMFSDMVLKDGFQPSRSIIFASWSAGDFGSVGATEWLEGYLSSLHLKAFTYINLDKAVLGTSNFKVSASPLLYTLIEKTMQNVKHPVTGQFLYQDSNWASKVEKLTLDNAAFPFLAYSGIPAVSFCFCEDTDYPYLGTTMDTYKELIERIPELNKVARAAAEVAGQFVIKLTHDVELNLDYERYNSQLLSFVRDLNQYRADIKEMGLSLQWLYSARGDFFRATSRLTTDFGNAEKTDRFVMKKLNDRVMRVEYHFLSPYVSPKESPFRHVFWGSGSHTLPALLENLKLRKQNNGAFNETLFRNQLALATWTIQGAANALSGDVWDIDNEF
Experimental: For each of the various synthesized peptides, the intermolecular interaction of the peptide with the transferrin receptor (hTfR) was tested by surface plasmon resonance (SPR) according to the following method. The specific test method is as follows.
An NTA sensor chip (Global Life Sciences Technologies Japan) was inserted in a Biacore T200 (Global Life Sciences Technologies Japan) and a prime operation was performed 3 times with a running buffer: 10 mM HEPES pH 8.0 (Nacalai Tesque), 150 mM NaCl (Nacalai Tesque), 0.05% Tween 20 (Nacalai Tesque), 0.1% BSA (Sigma-Aldrich), 1.0% DMSO (FUJIFILM Wako Pure Chemical) to create an Equilibration state at a flow rate of 30 µL/min. After reacting with 350 mM EDTA solution for 60 seconds at a flow rate of 10 µL/min then reacting with 0.5 mM NiCl2 solution (Kishida Chemical) for 60 seconds at a flow rate of 10 µL/min, the NTA sensor chip was washed with 3 mM EDTA solution (Nacalai Tesque) for 60 seconds at a flow rate of 10 µL/min. After mixing 50 µL each of 60 mM EDC solution (Global Life Sciences Technologies Japan) and 650 mM NHS solution (Global Life Sciences Technologies Japan), the mixture was reacted for 420 seconds at a flow rate of 10 µL/min. By diluting with the running buffer, 150 µL of 3.2 µM hTfR solution was prepared and used for reaction for 600 seconds at a flow rate of 10 µL/min, thereby immobilizing hTfR on the NTA sensor chip. After immobilization, capping was performed by reacting with 1.0 M ethanolamine aqueous solution (Global Life Sciences Technologies Japan) for 420 seconds at a flow rate of 10 µL/min. A peptide dissolution liquid prepared to 10 mM in the DMSO solution was diluted with the running buffer to a final concentration of 10 µM so as to become the peptide dissolution liquid, then peptide solutions of 100 nM, 50 nM, 25 nM, 10 nM and 5 nM were prepared. Kinetics of the peptide to hTfR was acquired by SPR measurement using the above-mentioned samples. Single-cycle kinetics was used as a kinetic evaluation model and curve fitting was performed using Biacore T200 Evaluation Software Version 3.0 (Global Life Sciences Technologies Japan). An obtained sensorgram was subjected to curve fitting using the least-squares method, and the binding of the peptide to hTfR was evaluated by obtaining KD values. […] A chemical structure of hTfR No. 894 is as follows.
The variant peptides were synthesized according to Example 1 unless otherwise stated in Example 9 or 10. The linker-added peptides were synthesized according to Example 1, except that Fmoc-NH-SAL-PEG resin (Watanabe Chemical Industries) was used as a resin for the peptide synthesis when the linker was PEG. The peptide, to which a peptide, a fatty acid, PEG, or a conjugate thereof is added as a linker, was also synthesized according to Example 1, unless otherwise stated in Example 9 or 10.

Kd, 1 to 100 nM:
CC[C@H](C)[C@@H]1NC(=O)[C@H](Cc2ccc(O)cc2)NC(=O)[C@H](Cc2ccc(O)cc2)NC(=O)[C@H](CC(N)=O)NC(=O)[C@H](Cc2c[nH]c3ccccc23)N(C)C(=O)[C@H](C(C)C)NC(=O)[C@H](Cc2ccccc2)N(C)C(=O)[C@H](C(C)C)NC(=O)[C@H](C)NC(=O)CSC[C@@H](C(=O)NCCOCCOCCOCCOCCOCCOCCOCCOCCOCCOCCOCCOCCC(=O)N[C@H](CSC2CC(=O)N(c3ccc(-c4c5ccc(=O)cc-5oc5cc(O)ccc45)c(C(=O)O)c3)C2=O)C(N)=O)NC(=O)[C@H](Cc2ccc(O)cc2)N(C)C(=O)[C@H](Cc2ccc(O)cc2)NC(=O)[C@H](CCCNC(=N)N)NC(=O)[C@H](CCCNC(=N)N)NC(=O)[C@H]([C@@H](C)CC)NC1=O (stereo partly shown) [compound 168]
CC[C@H](C)[C@@H]1NC(=O)[C@H](Cc2ccc(O)cc2)NC(=O)[C@H](Cc2ccc(O)cc2)NC(=O)[C@H](CC(N)=O)NC(=O)[C@H](Cc2c[nH]c3ccccc23)N(C)C(=O)[C@H](C(C)C)NC(=O)[C@H](Cc2ccccc2)N(C)C(=O)[C@H](C(C)C)NC(=O)[C@H](C)NC(=O)CSC[C@@H](C(=O)NCCOCCOCCOCCOCCOCCOCCOCCOCCOCCOCCOCCOCCC(=O)N[C@H](CSC2CC(=O)N(c3ccc(-c4c5ccc(=O)cc-5oc5cc(O)ccc45)c(C(=O)O)c3)C2=O)C(N)=O)NC(=O)[C@H](Cc2ccc(O)cc2)N(C)C(=O)[C@H](Cc2ccc(O)cc2)NC(=O)[C@H](CCCNC(=N)N)NC(=O)[C@H](CCCCN)NC(=O)[C@H]([C@@H](C)CC)NC1=O (stereo partly shown) [compound 169]
CC[C@H](C)[C@@H]1NC(=O)[C@H](Cc2ccc(O)cc2)NC(=O)[C@H](Cc2ccc(O)cc2)NC(=O)[C@H](CC(N)=O)NC(=O)[C@H](Cc2c[nH]c3ccccc23)N(C)C(=O)[C@H](C(C)C)NC(=O)[C@H](Cc2ccccc2)N(C)C(=O)[C@H](C(C)C)NC(=O)[C@H](C)NC(=O)CSC[C@@H](C(=O)NCCOCCOCCOCCOCCC(=O)N[C@H](CSC2CC(=O)N(c3ccc(-c4c5ccc(=O)cc-5oc5cc(O)ccc45)c(C(=O)O)c3)C2=O)C(N)=O)NC(=O)[C@H](Cc2ccc(O)cc2)N(C)C(=O)[C@H](Cc2ccc(O)cc2)NC(=O)[C@H](CCCNC(=N)N)NC(=O)[C@H](CCCCN)NC(=O)[C@H]([C@@H](C)CC)NC1=O (stereo partly shown) [compound 170]

same assay, conditions: hTfR binding by SPR; hTfR No. 894 variant peptides, linker-added peptides and payload conjugates (Table 2); read-out: KD value obtained from the SPR measurement

Kd, 1 to 100 nM:
CC[C@H](C)[C@@H]1NC(=O)[C@H](Cc2ccc(O)cc2)NC(=O)[C@H](Cc2ccc(O)cc2)NC(=O)[C@H](CC(N)=O)NC(=O)[C@H](Cc2c[nH]c3ccccc23)N(C)C(=O)[C@H](C(C)C)NC(=O)[C@H](Cc2ccccc2)NC(=O)[C@H](C(C)C)NC(=O)[C@H](C)NC(=O)CSC[C@@H](C(=O)NCCOCCOCCOCCOCCOCCOCCOCCOCCOCCOCCOCCOCCC(=O)N[C@H](CSC2CC(=O)N(c3ccc(-c4c5ccc(=O)cc-5oc5cc(O)ccc45)c(C(=O)O)c3)C2=O)C(N)=O)NC(=O)[C@H](Cc2ccc(O)cc2)N(C)C(=O)[C@H](Cc2ccc(O)cc2)NC(=O)[C@H](CCCNC(=N)N)NC(=O)[C@H](CCCNC(=N)N)NC(=O)[C@H]([C@@H](C)CC)NC1=O (stereo partly shown) [compound 171]
CC[C@H](C)[C@@H]1NC(=O)[C@H](Cc2ccc(O)cc2)NC(=O)[C@H](Cc2ccc(O)cc2)NC(=O)[C@H](CC(N)=O)NC(=O)[C@H](Cc2c[nH]c3ccccc23)N(C)C(=O)[C@H](C(C)C)NC(=O)[C@H](Cc2ccccc2)NC(=O)[C@H](C(C)C)NC(=O)[C@H](C)NC(=O)CSC[C@@H](C(=O)NCCOCCOCCOCCOCCOCCOCCOCCOCCOCCOCCOCCOCCC(=O)N[C@H](CSC2CC(=O)N(c3ccc(-c4c5ccc(=O)cc-5oc5cc(O)ccc45)c(C(=O)O)c3)C2=O)C(N)=O)NC(=O)[C@H](Cc2ccc(O)cc2)N(C)C(=O)[C@H](Cc2ccc(O)cc2)NC(=O)[C@H](CCCNC(=N)N)NC(=O)[C@H](CCCCN)NC(=O)[C@H]([C@@H](C)CC)NC1=O (stereo partly shown) [compound 172]
CC[C@H](C)[C@@H]1NC(=O)[C@H](Cc2ccc(O)cc2)NC(=O)[C@H](Cc2ccc(O)cc2)NC(=O)[C@H](CC(N)=O)NC(=O)[C@H](Cc2c[nH]c3ccccc23)N(C)C(=O)[C@H](C(C)C)NC(=O)[C@H](Cc2ccccc2)NC(=O)[C@H](C(C)C)NC(=O)[C@H](C)NC(=O)CSC[C@@H](C(=O)NCCOCCOCCOCCOCCC(=O)N[C@H](CSC2CC(=O)N(c3ccc(-c4c5ccc(=O)cc-5oc5cc(O)ccc45)c(C(=O)O)c3)C2=O)C(N)=O)NC(=O)[C@H](Cc2ccc(O)cc2)N(C)C(=O)[C@H](Cc2ccc(O)cc2)NC(=O)[C@H](CCCNC(=N)N)NC(=O)[C@H](CCCCN)NC(=O)[C@H]([C@@H](C)CC)NC1=O (stereo partly shown) [compound 173]
CC[C@H](C)[C@@H]1NC(=O)[C@H](Cc2ccc(O)cc2)NC(=O)[C@H](Cc2ccc(O)cc2)NC(=O)[C@H](CC(N)=O)NC(=O)[C@H](Cc2c[nH]c3ccccc23)N(C)C(=O)[C@H](C(C)C)NC(=O)[C@H](Cc2ccccc2)N(C)C(=O)[C@H](C(C)C)NC(=O)[C@H](C)NC(=O)CSC[C@@H](C(=O)NCCOCCOCCOCCOCCOCCOCCOCCOCCOCCOCCOCCOCCC(=O)N[C@H](CSC2CC(=O)N(c3ccc(-c4c5ccc(=O)cc-5oc5cc(O)ccc45)c(C(=O)O)c3)C2=O)C(N)=O)NC(=O)[C@H](Cc2ccc(O)cc2)N(C)C(=O)[C@H](Cc2ccc(O)cc2)NC(=O)[C@H](CCCN)NC(=O)[C@H](CCCCN)NC(=O)[C@H]([C@@H](C)CC)NC1=O (stereo partly shown) [compound 174] ({CH2CO}-AV[NMeF]V[NMeW]NYYIIK[Orn]Y[NMeY]C[PEG12][dC](X7)-NH2; thioether N-15)
CC[C@H](C)[C@@H]1NC(=O)[C@H](Cc2ccc(O)cc2)NC(=O)[C@H](Cc2ccc(O)cc2)NC(=O)[C@H](CC(N)=O)NC(=O)[C@H](Cc2c[nH]c3ccccc23)N(C)C(=O)[C@H](C(C)C)NC(=O)[C@H](Cc2ccccc2)N(C)C(=O)[C@H](C(C)C)NC(=O)[C@H](C)NC(=O)CSC[C@@H](C(=O)NCCOCCOCCOCCOCCOCCOCCOCCOCCOCCOCCOCCOCCC(=O)N[C@H](CSC2CC(=O)N(c3ccc(-c4c5ccc(=O)cc-5oc5cc(O)ccc45)c(C(=O)O)c3)C2=O)C(N)=O)NC(=O)[C@H](Cc2ccc(O)cc2)N(C)C(=O)[C@H](Cc2ccc(O)cc2)NC(=O)[C@H](CCCNC(=N)N)NC(=O)[C@H](CCCCCN)NC(=O)[C@H]([C@@H](C)CC)NC1=O (stereo partly shown) [compound 175]
CC[C@H](C)[C@@H]1NC(=O)[C@H](Cc2ccc(O)cc2)NC(=O)[C@H](Cc2ccc(O)cc2)NC(=O)[C@H](CC(N)=O)NC(=O)[C@H](Cc2c[nH]c3ccccc23)N(C)C(=O)[C@H](C(C)C)NC(=O)[C@H](Cc2ccccc2)N(C)C(=O)[C@H](C(C)C)NC(=O)[C@H](C)NC(=O)CSC[C@@H](C(=O)NCCOCCOCCOCCOCCOCCOCCOCCOCCOCCOCCOCCOCCC(=O)N[C@H](CSC2CC(=O)N(c3ccc(-c4c5ccc(=O)cc-5oc5cc(O)ccc45)c(C(=O)O)c3)C2=O)C(N)=O)NC(=O)[C@H](Cc2ccc(O)cc2)N(C)C(=O)[C@H](Cc2ccc(O)cc2)NC(=O)[C@H](CCCNC(=N)N)NC(=O)[C@H](CCCN)NC(=O)[C@H]([C@@H](C)CC)NC1=O (stereo partly shown) [compound 176]
CC[C@H](C)[C@@H]1NC(=O)[C@H](Cc2ccc(O)cc2)NC(=O)[C@H](Cc2ccc(O)cc2)NC(=O)[C@H](CC(N)=O)NC(=O)[C@H](Cc2c[nH]c3ccccc23)N(C)C(=O)[C@H](C(C)C)NC(=O)[C@H](Cc2ccccc2)N(C)C(=O)[C@H](C(C)C)NC(=O)[C@H](C)NC(=O)CSC[C@@H](C(=O)NCCOCCOCCOCCOCCOCCOCCOCCOCCOCCOCCOCCOCCC(=O)N[C@H](CSC2CC(=O)N(c3ccc(-c4c5ccc(=O)cc-5oc5cc(O)ccc45)c(C(=O)O)c3)C2=O)C(N)=O)NC(=O)[C@H](Cc2ccc(O)cc2)N(C)C(=O)[C@H](Cc2ccc(O)cc2)NC(=O)[C@H](CCCNC(=N)N)NC(=O)[C@H](CN)NC(=O)[C@H]([C@@H](C)CC)NC1=O (stereo partly shown) [compound 177] ({CH2CO}-AV[NMeF]V[NMeW]NYYII[Dap]RY[NMeY]C[PEG12][dC](X7)-NH2; thioether N-15)
